Reference: PubChem BioAssay AID1508624 (National Center for Advancing Translational Sciences (NCATS), 2021)
Out of some 48,000 compounds screened, about 120 (0.25%) were called active. Not shown: some 4% with an inconclusive outcome. Calls follow the shape of the dose curve; as a rule, active = well fitted activation curve with a large enough effect; inconclusive = small, poorly fitted or top-dose-only effect, or another doubt; inactive = no such curve, though single readings can be large or run the other way. The list shows a part of the results.

Test: Primary qHTS for Identification of Small Molecule Activators of Huntingtin-Antisense Promoter Activity; also: nearly all actives have a fitted effect of over 55% in size
Details: HEK293 HTT-AS promoter firefly luciferase reporter, 24 h; series mostly up to 57.5 µM; activity change, positive = activation: at the top concentration
How it was run: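 HEK293 Fluc reporter, 2,500 cells/well, 24 h pre-culture; cpds up to 57.5 uM final, 24 h 37 degrees C; Dual-Glo, 10 min RT; normalized vehicle = 0%, zero RLU = -100%.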

| Compound | activity change, positive = activation |
| --- | --- |
| COc1ccc(NC(=O)c2nc3nc(C)cc(C(F)F)n3n2)c(C)c1 | inactive: 8.24% |
| CCOC(=O)c1ccc(NC(=O)CC2C(=O)N(c3ccc(F)cc3)C(=O)N2Cc2ccc3c(c2)OCO3)cc1 (stereo unspecified) | inactive: -28.4% |
| CCOC(=O)c1cccc(NC(=O)C2CCN(S(=O)(=O)c3cn(C)cn3)CC2)c1 | inactive: -2.63% |
| Cc1ccc(C)c(NS(=O)(=O)c2cc3c(cc2Cl)NC(=O)CO3)c1 | inactive: -24.5% |
| CCc1ccc(NC(=O)N2CC(C)Oc3ccc(C)cc32)cc1 (stereo unspecified) | inactive: -6.54% |
| CC(C)(C)OC(=O)N1CCC(c2c(C(=O)NCCN3CCC(Cc4ccccc4)CC3)cnn2-c2ccccc2)CC1 | inactive: -30.1% |
| COCCCNc1ncnc2c1cnn2-c1ccc(F)cc1 | inactive: 21.6% |
| COc1cc2ccccc2cc1C(=O)Nc1ccc2oc(-c3cccc(Cl)c3Cl)nc2c1 | inactive: 3.18% |
| COc1ccc(C(=O)N2CCc3cc(OC)c(OC)cc3C2COc2ccc3c(C)cc(=O)oc3c2)c(OC)c1 (stereo unspecified) | inactive: 4.65% |
| Cc1cc(C)n(-c2nc3ccccc3nc2Nc2cc(C(=O)O)ccc2C)n1 | inactive: -2.73% |
| Cc1ccc(CN2CCN(CC(=O)NCc3ccccc3Cl)C2=O)cc1 | inactive: -9.12% |
| COc1cc(NS(=O)(=O)c2ccc3c(c2)CCCN3C(C)=O)cc(OC)c1OC | inactive: -66.5% |
| Cc1cc(C)cc(-n2nnc(-c3nc(-c4ccccc4F)no3)c2C)c1 | inactive: 22.7% |
| Cc1ccc(NC(=O)C(=O)NCC(c2cccnc2)N2CCc3ccccc32)cc1Cl (stereo unspecified) | inactive: -22.8% |
| CCOc1ccccc1NC(=O)CN1C(=O)C2(SCC(=O)N2c2cccc(F)c2)c2ccccc21 (stereo unspecified) | inactive: -11.1% |
| Cc1c(Cl)cccc1NC(=O)CCn1nc(C)c2c(C)n(-c3ccccc3)nc2c1=O | inactive: 8.14% |
| O=C(Nc1ccc(F)c(Cl)c1)c1cc(S(=O)(=O)N2CCCc3ccccc32)ccc1F | inactive: -18.6% |
| COc1ccc(S(=O)(=O)N(CC(=O)NCc2ccc(C)cc2)c2ccc(Cl)cc2)cc1 | inactive: -18.3% |
| CCOc1ccc(C(=O)N2CCCCC2CCN2CCOCC2)cc1 (stereo unspecified) | inactive: -8.02% |
| COc1ccc(NC(=O)c2sc3nc(C)c(C(=O)Nc4ccc(Cl)cc4)c(-c4ccc(Br)cc4)c3c2N)cc1 | inactive: -33.5% |
| CCOc1ccc(OCC)c(NC(=O)CCc2c(C)nc3c(c2C)c(=O)n(C)c(=O)n3C)c1 | inactive: -10.5% |
| O=C(c1ccc2c(c1)N(Cc1ccccc1)C(=O)c1ccccc1S2(=O)=O)N1CCN(c2ccccn2)CC1 | inactive: -1.2% |
| CCSc1ncc(Cl)c(C(=O)Nc2c(C(=O)Nc3ccc(Cl)cc3)oc3ccccc23)n1 | inactive: 0.969% |

| Compound | activity change, positive = activation |
| --- | --- |
| CCOc1ccccc1CNC(=O)c1cc(-c2ccc(OC)cc2)nc2ccc(C(C)C)cc12 | inactive: -1.26% |
| COc1cc(C2c3c(oc4ccccc4c3=O)C(=O)N2c2nnc(C(C)C)s2)cc(OC)c1OC (stereo unspecified) | inactive: -5.2% |
| Cc1ccc(Cn2ccn(Cc3ccccc3C)c(=O)c2=O)cc1 | inactive: -9% |
| COc1ccc(/C=C/c2noc(-c3ccccc3O)n2)cc1OC | inactive: 4.1% |
| COC(=O)c1ccccc1NC(=O)Cn1c(=O)n(-c2ccc(Cl)cc2)c(=O)c2c(C)c(C)sc21 | inactive: 28.7% |
| CCn1ccc2cc(S(=O)(=O)N3CCC(C(=O)NCCc4ccc(C)cc4)CC3)ccc21 | inactive: -18.6% |
| COc1ccc(NC(=O)CSCc2cnn(-c3ccccc3)c2-n2cccc2)cc1 | inactive: -18.6% |
| CCC(C)NC(=O)c1ccc2nc(Cc3ccc(OC)cc3)oc2c1 (stereo unspecified) | inactive: 5.6% |
| COc1cc(OC)cc(C(=O)NCC(c2cccs2)S(=O)(=O)c2ccc(F)c(C)c2)c1 (stereo unspecified) | inactive: 5.98% |
| COc1cc(C(=O)N2CCN(CCc3ccccn3)CC2)cc(OC)c1OC | inactive: 3.85% [at 11.5 µM, percent change from vehicle, -100% = no light] |
| COc1ccccc1NC(=O)CN1C(=O)C2(SCC(=O)N2c2ccc(C)c(C)c2)c2ccccc21 (stereo unspecified) | inactive: -56.4% |
| Cc1ccc(N(CC(=O)Nc2cc(C)cc(C)c2)S(=O)(=O)c2cccc3nonc23)cc1 | inactive: -5.74% |
| CC1=C(c2ccc(C)cc2)S(=O)(=O)N(Cc2ccc(C(=O)Nc3ccc(F)cc3C)cc2)C1=O | inactive: -39.2% |
| NS(=O)(=O)c1ccc(NC(=O)c2ccc3c(c2)CCN3S(=O)(=O)c2ccccc2)cc1 | inactive: -29.8% |
| COC(=O)C(CCSC)NC(=O)c1c(C)oc2ncn(CC(C)C)c(=O)c12 (stereo unspecified) | inactive: -0.251% |
| Cc1ccc(NC(=O)C(=O)NCC(c2cccnc2)N2CCN(C)CC2)cc1F (stereo unspecified) | inactive: -14.9% |
| Cc1c(Cl)cccc1NC(=O)CSc1ncccc1C(=O)Oc1ccccc1Cl | inactive: -9.58% |
| CCOc1ccc(NC(=O)Cn2ccn(-c3ccc(F)c(F)c3)c(=O)c2=O)cc1 | inactive: -4.39% |
| COc1ccc(CNC(=O)c2cccc(-n3cnc4cccnc43)c2C)cc1 | inactive: -7.83% |
| COc1cccc(C(=O)Nc2ccc(-c3cn4cccnc4n3)cc2)c1OC | inactive: 5.72% |
| CCOCCSc1c(C)cnc2c1c(=O)n(C)c(=O)n2C | inactive: -31.3% |
| Cc1ccc(N2C(=O)c3[nH]nc(-c4ccc(Cl)cc4)c3C2c2ccc(F)cc2)cc1 (stereo unspecified) | inactive: -60.3% |
| CC(C)CCNC(=O)C1CCC(Cn2c(=O)c3sccc3n(CC(=O)NC(C)C)c2=O)CC1 (stereo unspecified) | inactive: -13.9% |
